Data: PMC4336329 (PLoS ONE, 2015)
Among all 310,000 compounds or so, about 14,000 (4.5%) showed an effect of 50% or more. The effect is printed as a negative number. The list shows a part of the results.

Biological target: human ether-à-go-go-related gene (hERG) potassium channel (human, UniProt Q12809)
Assay: primary screen, population patch clamp on CHO cells stably expressing hERG
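Note: peak tail current of the secondary pulse compared with the same well before compound.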

Sequence of human ether-à-go-go-related gene (hERG) potassium channel (Q12809 whole entry, looked up): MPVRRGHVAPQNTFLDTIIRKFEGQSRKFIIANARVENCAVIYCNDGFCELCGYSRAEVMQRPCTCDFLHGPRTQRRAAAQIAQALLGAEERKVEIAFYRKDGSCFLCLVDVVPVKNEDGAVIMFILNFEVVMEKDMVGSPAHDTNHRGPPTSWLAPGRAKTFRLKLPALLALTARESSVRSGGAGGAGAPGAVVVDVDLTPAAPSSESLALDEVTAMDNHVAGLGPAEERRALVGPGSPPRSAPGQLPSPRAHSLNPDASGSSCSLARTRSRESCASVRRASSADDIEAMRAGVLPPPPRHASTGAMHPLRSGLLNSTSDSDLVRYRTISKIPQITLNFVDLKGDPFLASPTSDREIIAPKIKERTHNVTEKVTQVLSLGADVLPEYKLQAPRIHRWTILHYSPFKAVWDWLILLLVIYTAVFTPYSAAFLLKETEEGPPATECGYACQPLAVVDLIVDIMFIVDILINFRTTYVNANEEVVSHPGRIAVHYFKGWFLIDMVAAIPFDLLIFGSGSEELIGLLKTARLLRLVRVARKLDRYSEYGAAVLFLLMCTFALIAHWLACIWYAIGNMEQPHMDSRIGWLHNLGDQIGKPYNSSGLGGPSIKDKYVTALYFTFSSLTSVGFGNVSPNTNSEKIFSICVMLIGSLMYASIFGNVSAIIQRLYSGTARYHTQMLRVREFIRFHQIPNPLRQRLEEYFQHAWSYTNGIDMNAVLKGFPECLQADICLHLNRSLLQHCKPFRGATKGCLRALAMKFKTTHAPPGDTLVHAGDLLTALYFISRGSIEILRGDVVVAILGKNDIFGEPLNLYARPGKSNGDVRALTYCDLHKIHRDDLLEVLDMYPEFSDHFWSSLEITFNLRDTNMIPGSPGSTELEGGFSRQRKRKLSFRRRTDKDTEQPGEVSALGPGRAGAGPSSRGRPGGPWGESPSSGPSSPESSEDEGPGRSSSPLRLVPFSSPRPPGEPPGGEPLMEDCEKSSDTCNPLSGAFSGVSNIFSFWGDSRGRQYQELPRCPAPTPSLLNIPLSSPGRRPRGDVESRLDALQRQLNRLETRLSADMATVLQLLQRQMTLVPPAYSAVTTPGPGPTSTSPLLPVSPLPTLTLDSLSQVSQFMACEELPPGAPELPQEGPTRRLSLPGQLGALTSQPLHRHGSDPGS

Row | SMILES | hERG current change (%, negative = inhibition) at 10uM [%]
1 | Cc1nc(C)c(-c2csc(Nc3ccccn3)n2)s1 | -11.5
2 | CC(=O)Nc1ccc(C(=S)NCc2ccco2)cc1 | -9.31
3 | Cc1ccc(OCCn2c(CCCO)nc3ccccc32)cc1 | -7.79
4 | COC(=O)[C@@]12CCCN1[C@H](c1ccc(-c3ccc4c(c3)OCO4)c(OC)c1)[C@H]1C(=O)N(C)C(=O)[C@H]12.O=C(O)C(F)(F)F | -18
5 | CCc1c(C)nc(N2CCOCC2)[nH]c1=O | -13.2
6 | Cc1cc(C)n(-c2ccc(C(=O)Nc3cccc(S(=O)(=O)N(C)C)c3)cc2)n1 | -28.6
7 | CCSc1nc(N)c(C#N)c(-c2ccccc2Cl)c1C#N | 7.74
8 | Cc1ccccc1NC(=O)NCc1ccccn1 | 11.3
9 | CCCCOc1ccc(CC2CCC(=O)NC2=O)cc1 (stereo not drawn) | -5.94
10 | COc1ccc(/C=N/N2C(=O)CSC2=S)cc1Br | -7.24
11 | COc1ccc(S(=O)(=O)N(CCC#N)Cc2ccco2)cc1OC | 17.8
12 | Cc1cccc([C@@H]2[C@@H]3C(=O)N(Cc4ccccc4)C(=O)[C@@H]3[C@]3(Cc4ccc(Cl)cc4)C(=O)N(c4ccc(Br)cc4)C(=O)N23)c1 | 32.7
13 | O=C1CCC(C(=O)N2CCCC(C(=O)c3ccc4c5c(cccc35)CC4)C2)=NN1 (stereo not drawn) | -17.9
14 | O=C(COC(=O)CNS(=O)(=O)c1ccc(F)c(F)c1F)Nc1ccc(OC(F)F)cc1 | -65.2
15 | O=C(CN1C(=O)C2(OCCO2)c2cc(Br)ccc21)NO | 17.2
16 | CC[C@H]1CC2CN3CCc4c([nH]c5cc(OC)ccc45)[C@](C(=O)OC)(C2)[C@H]13 | -16.4
17 | COc1ccccc1NC(=O)CSc1nn2c(=O)c(C)nnc2s1 | 21.6
18 | COc1ccccc1NC(=O)Cc1nnc(SCC(=O)Nc2ccc(F)cc2F)n1C | 4.21
19 | CC/C(C)=N/Nc1ccc(S(=O)(=O)N2CCCC2)cc1[N+](=O)[O-] | -1.75
20 | Cc1ccc(C(=O)CSc2nc(C)cc(C)c2C(N)=O)cc1 | -7.88
21 | CCC(C)[C@H](NC(=O)N1CC(=O)Nc2ccccc21)C(=O)N[C@H](Cc1c[nH]c2ccccc12)C(=O)O (stereo partly drawn) | 21.7
22 | CCN1CCN(c2nc3ccccc3nc2NS(=O)(=O)c2ccc(NC(C)=O)cc2)CC1 | 5.21

Row | SMILES | hERG current change (%, negative = inhibition) at 10uM [%]
23 | COCCCn1c(C(=O)Nc2ccc3c(c2)OCO3)cc2c(=O)n3ccccc3nc21 | 8.51
24 | N#Cc1cnc2ncnn2c1-c1ccccc1 | 13.1
25 | Cc1c(NC(=O)c2ccco2)cccc1-c1nc2cccnc2s1 | -45.8
26 | COCCn1c(CN2CC(C)CC(C)C2)nc2c1c(=O)n(C)c(=O)n2C (stereo not drawn) | -7.28
27 | Cc1cc(C)c(NC(=O)c2ccccc2C(=O)c2ccccc2)c(C)c1 | 3.62
28 | COc1ccc(-c2nc(-c3cccs3)c(-c3cccs3)[nH]2)cc1OC | 13
29 | CC1CCN(CC(=O)Nc2cccc(C(=O)Nc3cccc(C(F)(F)F)c3)c2)CC1 | -37.3
30 | COc1cc(CNCc2ccco2)cc(OC)c1O.Cl | 25.4
31 | CCCCCCOc1cccc(N)c1 | 7.31
32 | CCCc1cc(=O)oc2cc(OC3CCCCC3=O)ccc12 (stereo not drawn) | 4.74
33 | CCC(C)C12CN3CCN(CC(C)(C3)C1=O)C2 (stereo not drawn) | 11.2
34 | CC(=O)Nc1ccccc1NC(=O)c1cc(C)ccc1C | 26.9
35 | O=C(Nc1ccccc1F)c1cc2c(s1)-c1ccccc1S(=O)(=O)C2 | 0.504
36 | O=S(=O)(c1ccc(F)cc1)N1CCCN(Cc2c(F)cccc2F)CC1 | -23.9
37 | CCOc1ccccc1C(=O)N[C@H](C(=O)OCc1cc(=O)oc2cc(C)ccc12)C(C)C | -10.2
38 | CC(Cc1ccccc1)NC(=S)CN1CCCC1=S (stereo not drawn) | 20.9
39 | C=CCc1ccc(OCCCOc2ccc(C)cc2OC)c(OC)c1 | 22.2
40 | CCCOc1ccccc1NC(=O)c1c(-c2ccccc2)noc1C | 12.1
41 | COc1ccc(/C=N/NC(=O)C(C)n2cnc3ccccc3c2=O)cc1OC (stereo not drawn) | -11
42 | CC(C)NC(=O)c1ccccc1NC(=O)C1CCCO1 (stereo not drawn) | 6.05
43 | O=C(NCc1ccc(Cl)cc1)C1CCC(CNc2c(N3CCCC3)c(=O)c2=O)CC1 (stereo not drawn) | 1.34
44 | Cc1cccc(N/C=C(\[N+](=O)[O-])S(=O)(=O)c2ccccc2)c1C | 3.02

Row | SMILES | hERG current change (%, negative = inhibition) at 10uM [%]
45 | CCc1ccccc1NC(=O)c1cnc2n(c1=O)CCS2 | 14
46 | Cc1cccc(C(=O)c2c(N)sc3c2CCCC3)c1 | -3.48
47 | Cc1ccc(O)c(CNc2ccccn2)c1 | -1.23
48 | COc1ccc(Sc2ccc(NC(=O)c3ccccc3Cl)cc2C#N)cc1 | 7.73
49 | Cc1cc(OC(=O)c2cc([N+](=O)[O-])ccc2Cl)c([N+](=O)[O-])c(=O)[nH]1 | 2.78
50 | CCCCCCCC(=O)Nc1ccc(C(=O)N/N=C/c2cccc([N+](=O)[O-])c2)cc1 | 15.5
51 | COc1ccc(CCN2CC(C#N)=C3c4cc(OC)c(OC)cc4CCN3C2)cc1OC | -29.8
52 | CCCCc1c(O)nc(SCCN(C)C)n(-c2ccccc2)c1=O | 10.1
53 | CCC(Oc1ccccc1)C(=O)Nc1ccccc1N1CCCC1 (stereo not drawn) | -0.829
54 | O=C(Nc1cc2c(oc1=O)CCCC2=O)c1cccc(Cl)c1 | 4.61
55 | O=C(Nc1ccccc1)C1=C(O)CC(c2ccc(Cl)cc2)N2CCN=C12 (stereo not drawn) | -31.3
56 | Cc1ccccc1/C=N/n1c(COc2ccccc2)n[nH]c1=S | 26.7
57 | Cc1cc(C)c(-c2c(O)c3c(n(C)c2=O)CC(C)(C)CC3=O)c(C)c1 | -3.02
58 | O=C(CCl)Nc1c(C(=O)Nc2ccc3c(c2)OCCO3)oc2ccccc12 | 12
59 | CCOc1ccccc1Nc1nnc(SCC(=O)Nc2ccc3[nH]c(=O)[nH]c3c2)s1 | -0.693
60 | CCc1cc(C=NC2CCCCC2)c(O)s1 | 1.75
61 | O=C(O)[C@@H](c1ccccc1)N1Cc2ccccc2C1=O | 17.2
62 | COc1cc(C#Cc2c(-c3cncn3C)n(C)c3ccc(-c4cnc(OC)nc4)cc23)cc(OC)c1 | 13.5
63 | CCc1cccc(CC)c1NC(=S)N1CCn2cccc2C1c1cccnc1 (stereo not drawn) | -12.8
64 | Clc1ccccc1-c1nnc2sc(-c3ccc(Br)o3)nn12 | -9.09
65 | COC(=O)[C@H](Cc1c[nH]c2ccccc12)NC(=O)Nc1ccccc1OC | -0.283
66 | N#Cc1cc(S(=O)(=O)c2ccc(Cl)cc2)c(N)[nH]c1=O | -12.6

Row | SMILES | hERG current change (%, negative = inhibition) at 10uM [%]
67 | O=C(Nc1ccc(S(=O)(=O)N2CCCCC2)cc1)c1ccncc1 | -13.1
68 | COc1ccc(C)cc1NC(=O)COC(=O)c1c(C)noc1C | -7.92
69 | CC1CCN(C(=O)C2CCN(S(=O)(=O)c3cccs3)CC2)CC1 | 5.61
70 | CC(=O)Nc1ccc(S(=O)(=O)Nc2cc(C)c(-n3nc4ccccc4n3)cc2O)cc1 | 5.05
71 | CCC(=O)Nc1ccc(C(=O)CSc2nc3ccccc3cc2CC)cc1 | -4.95
72 | Cc1ccc(OCC(=O)NNC(=O)C(=O)NC(C)(C)C)cc1 | 2.1
73 | Cc1[nH]n(-c2ncc(-c3ccc(Cl)cc3)s2)c(=O)c1C(c1ccc(Cl)cc1)C(C#N)C#N (stereo not drawn) | 5.38
74 | NC(=O)C1=C[C@@H](c2ccc(C(F)(F)F)cc2)C[C@@H](OCc2ccc(CO)cc2)O1 | -19.1
75 | COc1ccc(N(C)C(=O)Cn2c(=O)oc3ccccc32)c(OC)c1 | -14.7
76 | Cc1cc(C)cc(OCC(=O)N2N=C(c3cccnc3)CC2(O)C(F)(F)F)c1 (stereo not drawn) | -15.3
77 | COc1ccc(OC)c(-c2nc3ccccc3nc2-c2ccccc2)c1 | 14.4
78 | O=C(CN1CCc2ccccc2C1)Nc1cccc(S(=O)(=O)N2CCCC2)c1 | -10.5
79 | CN(C)c1ccc(C(CNC(=O)c2ccccc2)c2c[nH]c3ccccc23)cc1 (stereo not drawn) | -22
80 | CCOC(=O)N1CCN(C(=O)CCS(=O)(=O)c2ccc3c(c2)CC(C)N3C(=O)CC)CC1 (stereo not drawn) | -4.81
81 | CCCCN1CC(O)=C(c2nc3ccccc3s2)C1=N | 0.804
82 | CCOCCCNC(=O)C1CCN(C(=O)Nc2ccc(Cl)cc2)CC1 | -8.08
83 | Cc1ccc(S(=O)(=O)Oc2ccc(/C=C(/NC(=O)c3ccccc3)C(=O)O)cc2)cc1 | 34.7
84 | Cc1cccc2c(C(=O)N3CCN(c4ccccn4)CC3)cc(-c3cccc(Br)c3)nc12 | 10.5
85 | Nc1nc(NC(=O)C(Cl)(Cl)Cl)nn1-c1ccccc1 | 16.7
86 | CCOc1ccc(C(=O)Nc2ccc3c(c2)OCCO3)cc1[N+](=O)[O-] | 10.3
87 | COc1ccc(NC(=O)c2ccc3[nH]c(=O)c(=O)[nH]c3c2)c(OC)c1 | 27.9
